This is an account of results in patent publication US11178870B2 (priority 2017, dated 2021).

One assay relates to Magnaporthe grisea. It is filed as in vivo. As to conditions: Table 7, Test A.
The test system of a further assay is Phytophthora infestans. It is filed as in vivo. The following applies: Table 7, Test F.
Assay [1] has as its system Colletotrichum orbiculare. As to conditions: 250 ppm sprayed (2.5 ml/pot) before inoculation; assessed 6 to 10 days after inoculation.

On to `CCn1c(-c2ccc(F)cc2Cl)c(-n2cc(F)cn2)ccc1=O` [Compound 327], for which the “control value, Test A (blast on rice)” value with Magnaporthe grisea is reported as “H (H shows the control value more than 50%)”. In addition, the “control value, Test F (late blight on tomato)” value (“control value, Test F” for short) in the assay on Phytophthora infestans was “L (L shows the control value of 50% or less)”. In addition, the “control value, Test H (anthracnose on cucumber)” value (shortened to “control value, Test H”) in assay [1] was “H (H shows the control value more than 50%)”.

As for `CCn1c(-c2ccccc2Cl)c(-n2cc(F)cn2)cc(Cl)c1=O` [Compound 351], in the assay on Magnaporthe grisea, the “control value, Test A (blast on rice)” value is given as “H (H shows the control value more than 50%)”. In addition, the “control value, Test F” value in the assay with Phytophthora infestans was “L (L shows the control value of 50% or less)”. The “control value, Test H” value in assay [1] is recorded as “H (H shows the control value more than 50%)”.

As to `CCn1c(-c2ccccc2OC)c(-n2cc(Cl)cn2)cc(Cl)c1=O` [Compound 243], the “control value, Test A (blast on rice)” value with Magnaporthe grisea is on record as “L (L shows the control value of 50% or less)”. Besides, in the assay with Phytophthora infestans, the “control value, Test F” value is “L (L shows the control value of 50% or less)”. Also, the “control value, Test H” value in assay [1] is on record as “L (L shows the control value of 50% or less)”.

As to `CCn1c(-c2c(F)cc(F)cc2F)c(-n2cnc(Cl)n2)cc(Br)c1=O` [Compound 262], the “control value, Test A (blast on rice)” value in the assay on Magnaporthe grisea is given as “H (H shows the control value more than 50%)”. The “control value, Test F” value in the assay with Phytophthora infestans is “L (L shows the control value of 50% or less)”. In addition, in assay [1], the “control value, Test H” value is on record as “H (H shows the control value more than 50%)”.

As to `COc1ccc(-c2c(-n3cc(Cl)cn3)cc(Cl)c(=O)n2CC(F)F)c(Br)c1` [Compound 287], the “control value, Test A (blast on rice)” value in the assay on Magnaporthe grisea is given as “H (H shows the control value more than 50%)”. For the same molecule, the “control value, Test F” value in the assay with Phytophthora infestans was “L (L shows the control value of 50% or less)”. The “control value, Test H” value in assay [1] is “H (H shows the control value more than 50%)”.

On to `CCn1c(-c2ccc(C#N)cc2F)c(-n2cc(Cl)cn2)cc(Br)c1=O` [Compound 280], for which the “control value, Test A (blast on rice)” value in the assay on Magnaporthe grisea is listed as “H (H shows the control value more than 50%)”. Also, the “control value, Test F” value with Phytophthora infestans was “L (L shows the control value of 50% or less)”. Further, the “control value, Test H” value in assay [1] is given as “H (H shows the control value more than 50%)”.

Take `Cc1ccccc1-c1c(-n2ncc(C)c2Cl)cc(Cl)c(=O)n1CC(F)F` [Compound 306]: the “control value, Test A (blast on rice)” value with Magnaporthe grisea is reported as “H (H shows the control value more than 50%)”. Moreover, in the assay on Phytophthora infestans, the “control value, Test F” value was “L (L shows the control value of 50% or less)”. The “control value, Test H” value in assay [1] is on record as “H (H shows the control value more than 50%)”.

In the case of `CCn1c(-c2ccc(OC)cc2Cl)c(-n2cc(F)cn2)ccc1=O` [Compound 362], in the assay on Magnaporthe grisea, the “control value, Test A (blast on rice)” value was “H (H shows the control value more than 50%)”. Moreover, the “control value, Test F” value in the assay on Phytophthora infestans was “L (L shows the control value of 50% or less)”. In addition, in assay [1], the “control value, Test H” value was “H (H shows the control value more than 50%)”.

For the molecule `O=c1c(Cl)cc(-c2ccsc2Br)c(-c2c(F)cccc2F)n1CC(F)F` [Compound 347], in the assay with Magnaporthe grisea, the “control value, Test A (blast on rice)” value is “H (H shows the control value more than 50%)”. In addition, the “control value, Test F” value with Phytophthora infestans was “L (L shows the control value of 50% or less)”. Moreover, the “control value, Test H” value in assay [1] was “H (H shows the control value more than 50%)”.

For `O=c1c(Cl)cc(-n2cc(Cl)cn2)c(-c2ccc(F)cc2Br)n1CC(F)F` [Compound 274], the “control value, Test A (blast on rice)” value in the assay with Magnaporthe grisea was “H (H shows the control value more than 50%)”. Moreover, the “control value, Test F” value in the assay with Phytophthora infestans is “L (L shows the control value of 50% or less)”. In assay [1], the “control value, Test H” value is reported as “L (L shows the control value of 50% or less)”.
